According to patent US20170058282A1 (priority 2015, published 2017):

What was measured:
[1] = target: T1, Lactococcus lactis heme-responsive transcription factor HrtR, SEQ ID NO: 1 (in E. coli MG1655 gene circuit PL(HrtO)-luxCDABE-hrtR-chuA) (Lactococcus cremoris, UniProt A2RIY0); experiment: Hemin response of E. coli MG1655 with PL(HrtO)-luxCDABE-hrtR-chuA gene circuits carrying different RBSs for HrtR (luminescence, Hill fit); format: cell-based
T1 sequence (A2RIY0 1-189): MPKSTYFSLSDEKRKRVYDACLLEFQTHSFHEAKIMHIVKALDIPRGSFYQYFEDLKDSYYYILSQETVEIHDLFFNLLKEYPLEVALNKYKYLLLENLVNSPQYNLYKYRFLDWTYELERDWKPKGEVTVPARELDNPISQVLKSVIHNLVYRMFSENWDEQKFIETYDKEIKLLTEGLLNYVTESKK

[2] = target: T2, Lactococcus lactis heme-responsive transcription factor HrtR, SEQ ID NO: 1 (in E. coli MG1655, HrtR+ChuA+PL(HrtO)-luxCDABE) (Lactococcus cremoris, UniProt A2RIY0); experiment: Hemin response of E. coli MG1655 with HrtR+ChuA+PL(HrtO)-luxCDABE (luminescence); format: cell-based
T2 sequence (A2RIY0 1-189): T1 sequence (A2RIY0 1-189)

Row | Compound | Hill coefficient (Hill) ([1]; HrtR RBS1 (SEQ ID NO: 17)) | Hill coefficient (Hill) ([1]; HrtR RBS2 (SEQ ID NO: 18)) | Hill coefficient (Hill) ([1]; HrtR RBS3 (SEQ ID NO: 19)) | time to detectable differences in luminescence ([2]; depending on the concentration of hemin used) [min] | response concentration range ([2]; with ChuA)
1 | C=CC1=C(C)c2cc3[nH]c(cc4nc(cc5[nH]c(cc1n2)c(C)c5CCC(=O)O)C(CCC(=O)O)=C4C)c(C)c3C=C.[Fe+3] [hemin] | 1.9 | 1.7 | 2.7 | 30 to 60 | –
2 | C=CC1=C(C)c2cc3[nH]c(cc4nc(cc5[nH]c(cc1n2)c(C)c5CCC(=O)O)C(CCC(=O)O)=C4C)c(C)c3C=C.[Fe+2] [heme] | – | – | – | – | sub-micromolar range
